Data as given in the supplement of paper PMC11417369.
± gives the standard deviation of the averaged measurements. This is one part of the list.

tested on: PfAP2-LT AP2 domain (GST-tagged); experiment: gcPBM binding intensity (ln(normalized median fluorescence intensity)); higher = stronger DNA binding
In short: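 Alexa488 anti-GST antibody, scanned at 488 nm, detected GST-tagged P. falciparum DNA-binding domains that had been expressed in E. coli and incubated for 1 h on an Agilent 4 × 180k array. The array carried primer-extended double-stranded 36-bp intergenic genomic probes and negative controls. Binding intensity is the highest Masliner-normalised natural-log median intensity across replicate spots of either orientation of each probe.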

Row | Sequence | gcPBM binding intensity (ln)
1 | TTTTTTTTTTTTTTTTGTACACATAGTAAAAATTAA [XGTACX_site2410] | 8.27 ± 0.35
2 | TGTTATTAAAACGTGACACACAATATATATATATAT [CACACA_site3539] | 9.29 ± 0.15
3 | TTATAAATTATATATATGACCAATAATTGTGAGCAT [CACACA_negctrl_site725] | 8.63 ± 0.35
4 | AATAAATTAATAAGGTGTACATAAATAATTTATATA [XGTACX_site8278] | 8.77 ± 0.54
5 | ATATATTATTATATATGTACTTATTTATAAATGATT [XGTACX_site7597] | 8.58 ± 0.33
6 | AAATAGGGAATTTATGCACACAGTTAAGGGGGAAAA [CACACA_site2071] | 9.28 ± 0.26
7 | TAAATATAAACACAAACACACACATATATATATATA [CACACA_site7978] | 10.04 ± 0.035
8 | ATTCAAAAGGTTTAATGTACGTGATGTTTCACAAAT [XGTACX_site784] | 8.63 ± 0.34
9 | ATTTTTTTTTTTTTTTTTTTTTTTTTCTCTCTCACT [CACACA_negctrl_site1046] | 8.67 ± 0.51
10 | CATACTCTACATAGATGTACTCATTTAAAAAAAAAA [XGTACX_site6945] | 8.29 ± 0.57
11 | AAATATATATATATAATACACACTAAAGTAACATAA [CACACA_site2870] | 9.06 ± 0.4
12 | TGTCGACATGTAGGTAGTACTATTAAAAATAATGAT [XGTACX_site3849] | 8.91 ± 0.51
13 | ATAGAAGGACATATAACACACATATATTATAAGTAT [CACACA_site5461] | 9.34 ± 0.43
14 | GGATGATTAAGGGGGACACACGTTTATATATTTATA [CACACA_site4342] | 9.22 ± 0.22
15 | CACGCATACAGACACACACACACACCCATATATATA [CACACA_site636] | 10.2 ± 0.37
16 | TATGATATGTATGGAAGTACGAAGAGGGATGATCAG [XGTACX_site1677] | 8.77 ± 0.52
17 | TTAAAAATAAAACAAAGTACTCAAGTTATTGTCTTT [XGTACX_site1584] | 8.51 ± 0.41
18 | ATTTTCAAATTAAAATGTACAAATGAAAGAAAGGGA [XGTACX_site7048] | 8.74 ± 0.46
19 | TGAAATAAAATTTGTACACACATATATATATATATA [CACACA_site586] | 9.555 ± 0.021
20 | GTGAATCCTAAGTGTACACATCTTACAGATATATAT [CACACA_site4836] | 9.12 ± 0.46
21 | GCACAAATCATCAAATGTACAGAAAATGCTGTCAAT [XGTACX_site5037] | 9.06 ± 0.33
22 | ATATAGGTATAATACACACACTAATATGTAACTGTA [CACACA_site7011] | 9.37 ± 0.49

Row | Sequence | gcPBM binding intensity (ln)
23 | TTCCTTCATTGGAAAAGTACACAATATTGTCGTTTA [XGTACX_site8057] | 8.86 ± 0.42
24 | CGTAAATTTTTCTAAGTGCATGTTAATTTTTCAATT | 8.62 ± 0.42
25 | TATTTATTATGATACTCATATTATTCTATGATTAAA [GTGCAC_negctrl_site486] | 8.5 ± 0.41
26 | TAAATACCTATATGGCGTACTATTATCATAGTATAT [XGTACX_site5423] | 8.95 ± 0.43
27 | ACATTCTATACATACACACCCACACCCAAAAAAAAA [CACACA_site863] | 9.59 ± 0.042
28 | TATATATCAATATACACACACACATATTTATTTATA [CACACA_site6858] | 9.6 ± 0.22
29 | TTTCTTAAATATATGCGTACTCAAAATTGTTCTACA [XGTACX_site7995] | 8.49 ± 0.5
30 | TAACCACAAAAATAAAATCAAAAAAAAAAAAAAAAA [CACACA_negctrl_site1727] | 8.23 ± 0.54
31 | AAAAATATAATATAATGTACACATAAACAAAAAAAA [XGTACX_site3658] | 8.98 ± 0.52
32 | AACAGACATACATACACACATACATACAGACATACA [CACACA_site1942] | 9.64 ± 0.45
33 | ATATATATATATTTCGCACACATAATCTTATTAAAT [CACACA_site2579] | 9.23 ± 0.24
34 | TAAAATAAAACAAACACACACACACCGACACAAAAA [CACACA_site5993] | 10.1 ± 0.035
35 | TATAAACCTACATACACACATACAATAAGTAAAATG [CACACA_site1921] | 9.31 ± 0.33
36 | TACTATGCCCCATATAAACACACAAATAAAAAGAAT [CACACA_site8857] | 9.22 ± 0.38
37 | ATGTATCATAAGAACTGTGTGGTTACAGACACGAAC [GTGCAC_negctrl_site416] | 9.08 ± 0.45
38 | CTATGCATTTATAGTGCATGTAAAATATAAGATAAT [TGCATGCA_site71] | 8.69 ± 0.47
39 | TATAATTAATTAGAAGTGCATTAGGTAACAACTGTC [GTGCAC_site9746] | 8.79 ± 0.38
40 | AACTATATATATAATTCACACATGTTTTAAAATTTT [CACACA_site4971] | 8.76 ± 0.38
41 | AACGCAGTTTAATATACACACCAAAAAAAAAAAAAG [CACACA_site5643] | 8.93 ± 0.43
42 | ATATATTCTTATTGCTGTACACATATTTTCTAAAAA [XGTACX_site4851] | 8.75 ± 0.38
43 | TTTCCTTTTTTAATATGTACACATATTATTATATCT [XGTACX_site3079] | 8.99 ± 0.62
44 | TAAAGAGAAATATGTACATGCGAAAATGCCTTAAAT [TGCATGCA_site1050] | 8.85 ± 0.37
